# Some of the results follow.
# What was measured:
# Assay in all cases: glycan array binding signal (z-score within array); higher = stronger binding
# Conditions in all cases: glycan notation: IUPAC condensed, linker removed
# [1] = target: Neu5Ac(a2-3)Gal(b1-4)GlcNAc(b1-2)[Neu5Ac(a2-3)Gal(b1-4)GlcNAc(b1-4)]Man(a1-3)[GlcNAc(b1-4)][Neu5Ac(a2-3)Gal(b1-4)GlcNAc(b1-4)Man(a1-6)]Man(b1-4)GlcNAc(b1-4)GlcNAc
# Outline: (§1)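 Glycan array binding is given as a within-array Z-score, which can be read as non-binding when negative. The arrays, 3228 of them, came from the Consortium for Functional Glycomics database and were retained only where the protein sequence was available. Z-scores were averaged across arrays of the same protein sequence at different concentrations or buffers and across linkers.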
# [2] = target: Neu5Ac(a2-3)Gal(b1-4)GlcNAc(b1-2)[Neu5Ac(a2-3)Gal(b1-4)GlcNAc(b1-6)]Man(a1-6)[Neu5Ac(a2-3)Gal(b1-4)GlcNAc(b1-2)Man(a1-3)]Man(b1-4)GlcNAc(b1-4)GlcNAc
# Outline: as §1
# [3] = target: Neu5Ac(a2-3)Gal(b1-4)GlcNAc(b1-2)[Neu5Ac(a2-3)Gal(b1-4)GlcNAc(b1-6)]Man(a1-6)[Neu5Ac(a2-3)Gal(b1-4)GlcNAc(b1-2)Man(a1-3)][GlcNAc(b1-4)]Man(b1-4)GlcNAc(b1-4)GlcNAc
# Outline: as §1
# [4] = target: Neu5Ac(a2-3)Gal(b1-4)GlcNAc(b1-3)Gal
# Outline: as §1
# [5] = target: Neu5Ac(a2-3)Gal(b1-4)GlcNAc(b1-3)Gal(b1-3)GlcNAc
# Outline: as §1
# [6] = target: Neu5Ac(a2-3)Gal(b1-4)GlcNAc(b1-3)Gal(b1-4)GlcNAc
# Outline: as §1
# [7] = target: Neu5Ac(a2-3)Gal(b1-4)GlcNAc(b1-3)Gal(b1-4)GlcNAc(b1-2)Man(a1-3)[Neu5Ac(a2-3)Gal(b1-4)GlcNAc(b1-3)Gal(b1-4)GlcNAc(b1-2)Man(a1-6)]Man(b1-4)GlcNAc(b1-4)GlcNAc
# Outline: as §1
# [8] = target: Neu5Ac(a2-3)Gal(b1-4)GlcNAc(b1-3)Gal(b1-4)GlcNAc(b1-3)Gal(b1-4)GlcNAc
# Outline: as §1
# [9] = target: Neu5Ac(a2-3)Gal(b1-4)GlcNAc(b1-3)Gal(b1-4)GlcNAc(b1-3)Gal(b1-4)GlcNAc(b1-2)Man(a1-3)[Neu5Ac(a2-3)Gal(b1-4)GlcNAc(b1-3)Gal(b1-4)GlcNAc(b1-3)Gal(b1-4)GlcNAc(b1-2)Man(a1-6)]GalNAc
# Outline: as §1
# [10] = target: Neu5Ac(a2-3)Gal(b1-4)GlcNAc(b1-3)Gal(b1-4)GlcNAc(b1-3)GalNAc
# Outline: as §1
# [11] = target: Neu5Ac(a2-3)Gal(b1-4)GlcNAc(b1-3)Gal(b1-4)GlcNAc(b1-3)[Neu5Ac(a2-3)Gal(b1-4)GlcNAc(b1-3)Gal(b1-4)GlcNAc(b1-6)]GalNAc
# Outline: as §1
# [12] = target: Neu5Ac(a2-3)Gal(b1-4)GlcNAc(b1-3)Gal(b1-4)GlcNAc(b1-6)[Gal(b1-3)]GalNAc
# Outline: as §1
# [13] = target: Neu5Ac(a2-3)Gal(b1-4)GlcNAc(b1-3)Gal(b1-4)[Fuc(a1-3)]GlcNAc
# Outline: as §1
# [14] = target: Neu5Ac(a2-3)Gal(b1-4)GlcNAc(b1-3)GalNAc
# Outline: as §1
# [15] = target: Neu5Ac(a2-3)Gal(b1-4)GlcNAc(b1-3)[Neu5Ac(a2-3)Gal(b1-4)GlcNAc(b1-6)]GalNAc
# Outline: as §1
# [16] = target: Neu5Ac(a2-3)Gal(b1-4)GlcNAc(b1-6)GalNAc
# Outline: as §1
# [17] = target: Neu5Ac(a2-3)Gal(b1-4)GlcNAc(b1-6)[Gal(b1-3)]GalNAc
# Outline: as §1
# [18] = target: Neu5Ac(a2-3)Gal(b1-4)GlcNAc(b1-6)[Neu5Ac(a2-3)Gal(b1-3)]GalNAc
# Outline: as §1
# [19] = target: Neu5Ac(a2-3)Gal(b1-4)GlcNAc6S
# Outline: as §1
# [20] = target: Neu5Ac(a2-3)Gal(b1-4)[Fuc(a1-3)]GlcNAc
# Outline: as §1
# [21] = target: Neu5Ac(a2-3)Gal(b1-4)[Fuc(a1-3)]GlcNAc(b1-2)Man
# Outline: as §1
# [22] = target: Neu5Ac(a2-3)Gal(b1-4)[Fuc(a1-3)]GlcNAc(b1-3)Gal
# Outline: as §1
# [23] = target: Neu5Ac(a2-3)Gal(b1-4)[Fuc(a1-3)]GlcNAc(b1-3)Gal(b1-4)GlcNAc
# Outline: as §1
# [24] = target: Neu5Ac(a2-3)Gal(b1-4)[Fuc(a1-3)]GlcNAc(b1-3)Gal(b1-4)[Fuc(a1-3)]GlcNAc(b1-3)Gal(b1-4)[Fuc(a1-3)]GlcNAc
# Outline: as §1
# [25] = target: Neu5Ac(a2-3)Gal(b1-4)[Fuc(a1-3)]GlcNAc(b1-3)GalNAc
# Outline: as §1
# [26] = target: Neu5Ac(a2-3)Gal(b1-4)[Fuc(a1-3)]GlcNAc(b1-6)[Gal(b1-3)]GalNAc
# Outline: as §1
# [27] = target: Neu5Ac(a2-3)Gal(b1-4)[Fuc(a1-3)]GlcNAc(b1-6)[Neu5Ac(a2-3)Gal(b1-3)]GalNAc
# Outline: as §1
# [28] = target: Neu5Ac(a2-3)Gal(b1-4)[Fuc(a1-3)]GlcNAc6S
# Outline: as §1
# [29] = target: Neu5Ac(a2-3)Gal6S(b1-4)GlcNAc
# Outline: as §1
# [30] = target: Neu5Ac(a2-3)Gal6S(b1-4)[Fuc(a1-3)]GlcNAc
# Outline: as §1
# Neu5Ac(a2-3)GalNAc = target: Neu5Ac(a2-3)GalNAc
# Outline: as §1
# [31] = target: Neu5Ac(a2-3)GalNAc(b1-4)GlcNAc
# Outline: as §1
# [32] = target: Neu5Ac(a2-3)[GalNAc(b1-4)]Gal(b1-4)Glc
# Outline: as §1
# [33] = target: Neu5Ac(a2-3)[GalNAc(b1-4)]Gal(b1-4)GlcNAc
# Outline: as §1
# [34] = target: Neu5Ac(a2-3)[GalNAc(b1-4)]Gal(b1-4)GlcNAc(b1-3)GalNAc
# Outline: as §1
# [35] = target: Neu5Ac(a2-3)[Neu5Ac(a2-6)]GalNAc
# Outline: as §1
# Neu5Ac(a2-6)Gal = target: Neu5Ac(a2-6)Gal
# Outline: as §1
# [36] = target: Neu5Ac(a2-6)Gal(b1-3)GlcNAc(b1-3)[Gal(b1-4)GlcNAc(b1-6)]Gal(b1-4)Glc
# Outline: as §1
# Neu5Ac(a2-6)Gal(b1-4)Glc = target: Neu5Ac(a2-6)Gal(b1-4)Glc
# Outline: as §1
# [37] = target: Neu5Ac(a2-6)Gal(b1-4)GlcNAc
# Outline: as §1
# [38] = target: Neu5Ac(a2-6)Gal(b1-4)GlcNAc(b1-2)Man
# Outline: as §1
# [39] = target: Neu5Ac(a2-6)Gal(b1-4)GlcNAc(b1-2)Man(a1-3)Man(b1-4)GlcNAc(b1-4)GlcNAc
# Outline: as §1
# [40] = target: Neu5Ac(a2-6)Gal(b1-4)GlcNAc(b1-2)Man(a1-3)[Gal(b1-4)GlcNAc(b1-2)Man(a1-6)]Man(b1-4)GlcNAc(b1-4)GlcNAc
# Outline: as §1
# [41] = target: Neu5Ac(a2-6)Gal(b1-4)GlcNAc(b1-2)Man(a1-3)[GlcNAc(b1-2)Man(a1-6)]Man(b1-4)GlcNAc(b1-4)GlcNAc
# Outline: as §1
# [42] = target: Neu5Ac(a2-6)Gal(b1-4)GlcNAc(b1-2)Man(a1-3)[GlcNAc(b1-4)][Neu5Ac(a2-6)Gal(b1-4)GlcNAc(b1-2)Man(a1-6)]Man(b1-4)GlcNAc(b1-4)GlcNAc
# Outline: as §1
binder,measurement,setting,value
AT1G15820(NC) (Arabidopsis thaliana) (protein) MAMAVSGAVLSGLGSSFLTGGKRGATALASGVGDAIAPFSFGSLLGTQLLLMGWVESKRWVDFFNPDSQSVEWATPWSKTAENFANYTGDQGYPGGRFFDPLGLAGKNRDGVYEPDFEKLERLKLAEIKHSRLAMVAMLIFYFEAGQGKTPLGALGL,glycan array binding signal (z-score),[1],-0.277
same,glycan array binding signal (z-score),[2],-0.3
same,glycan array binding signal (z-score),[3],-0.198
same,glycan array binding signal (z-score),[4],-0.662
same,glycan array binding signal (z-score),[5],0.253
same,glycan array binding signal (z-score),[6],-0.86
same,glycan array binding signal (z-score),[7],1.8
same,glycan array binding signal (z-score),[8],-0.284
same,glycan array binding signal (z-score),[9],0.549
same,glycan array binding signal (z-score),[10],-0.331
same,glycan array binding signal (z-score),[11],-0.185
same,glycan array binding signal (z-score),[12],-0.089
same,glycan array binding signal (z-score),[13],-0.36
same,glycan array binding signal (z-score),[14],-0.367
same,glycan array binding signal (z-score),[15],-0.604
same,glycan array binding signal (z-score),[16],-0.611
same,glycan array binding signal (z-score),[17],-0.488
same,glycan array binding signal (z-score),[18],-0.383
same,glycan array binding signal (z-score),[19],-0.18
same,glycan array binding signal (z-score),[20],-0.371
same,glycan array binding signal (z-score),[21],-0.437
same,glycan array binding signal (z-score),[22],-0.225
same,glycan array binding signal (z-score),[23],0.294
same,glycan array binding signal (z-score),[24],-0.32
same,glycan array binding signal (z-score),[25],2.9
same,glycan array binding signal (z-score),[26],0.282
same,glycan array binding signal (z-score),[27],1.64
same,glycan array binding signal (z-score),[28],-0.211
same,glycan array binding signal (z-score),[29],-0.177
same,glycan array binding signal (z-score),[30],-0.474
same,glycan array binding signal (z-score),Neu5Ac(a2-3)GalNAc,-0.722
same,glycan array binding signal (z-score),[31],0.125
same,glycan array binding signal (z-score),[32],-0.218
same,glycan array binding signal (z-score),[33],-0.475
same,glycan array binding signal (z-score),[34],0.125
same,glycan array binding signal (z-score),[35],0.083
same,glycan array binding signal (z-score),Neu5Ac(a2-6)Gal,-0.407
same,glycan array binding signal (z-score),[36],-0.089
same,glycan array binding signal (z-score),Neu5Ac(a2-6)Gal(b1-4)Glc,-0.637
same,glycan array binding signal (z-score),[37],-0.363
same,glycan array binding signal (z-score),[38],-0.411
same,glycan array binding signal (z-score),[39],-0.358
same,glycan array binding signal (z-score),[40],-0.457
same,glycan array binding signal (z-score),[41],-0.052
same,glycan array binding signal (z-score),[42],-0.578

# From the supplement of paper PMC8728848
